Data published in paper PMC4336329 (PLoS ONE, 2015).
In all, about 310,000 compounds went through this assay and about 2,200 (0.71%) showed an effect of 50% or more. The effect is printed as a negative number. Some of the results follow.

These molecules were tested against human ether-à-go-go-related gene (hERG) potassium channel (human, UniProt Q12809) (assay: primary screen, population patch clamp on CHO cells stably expressing hERG).
human ether-à-go-go-related gene (hERG) potassium channel, sequence (Q12809 whole entry, looked up): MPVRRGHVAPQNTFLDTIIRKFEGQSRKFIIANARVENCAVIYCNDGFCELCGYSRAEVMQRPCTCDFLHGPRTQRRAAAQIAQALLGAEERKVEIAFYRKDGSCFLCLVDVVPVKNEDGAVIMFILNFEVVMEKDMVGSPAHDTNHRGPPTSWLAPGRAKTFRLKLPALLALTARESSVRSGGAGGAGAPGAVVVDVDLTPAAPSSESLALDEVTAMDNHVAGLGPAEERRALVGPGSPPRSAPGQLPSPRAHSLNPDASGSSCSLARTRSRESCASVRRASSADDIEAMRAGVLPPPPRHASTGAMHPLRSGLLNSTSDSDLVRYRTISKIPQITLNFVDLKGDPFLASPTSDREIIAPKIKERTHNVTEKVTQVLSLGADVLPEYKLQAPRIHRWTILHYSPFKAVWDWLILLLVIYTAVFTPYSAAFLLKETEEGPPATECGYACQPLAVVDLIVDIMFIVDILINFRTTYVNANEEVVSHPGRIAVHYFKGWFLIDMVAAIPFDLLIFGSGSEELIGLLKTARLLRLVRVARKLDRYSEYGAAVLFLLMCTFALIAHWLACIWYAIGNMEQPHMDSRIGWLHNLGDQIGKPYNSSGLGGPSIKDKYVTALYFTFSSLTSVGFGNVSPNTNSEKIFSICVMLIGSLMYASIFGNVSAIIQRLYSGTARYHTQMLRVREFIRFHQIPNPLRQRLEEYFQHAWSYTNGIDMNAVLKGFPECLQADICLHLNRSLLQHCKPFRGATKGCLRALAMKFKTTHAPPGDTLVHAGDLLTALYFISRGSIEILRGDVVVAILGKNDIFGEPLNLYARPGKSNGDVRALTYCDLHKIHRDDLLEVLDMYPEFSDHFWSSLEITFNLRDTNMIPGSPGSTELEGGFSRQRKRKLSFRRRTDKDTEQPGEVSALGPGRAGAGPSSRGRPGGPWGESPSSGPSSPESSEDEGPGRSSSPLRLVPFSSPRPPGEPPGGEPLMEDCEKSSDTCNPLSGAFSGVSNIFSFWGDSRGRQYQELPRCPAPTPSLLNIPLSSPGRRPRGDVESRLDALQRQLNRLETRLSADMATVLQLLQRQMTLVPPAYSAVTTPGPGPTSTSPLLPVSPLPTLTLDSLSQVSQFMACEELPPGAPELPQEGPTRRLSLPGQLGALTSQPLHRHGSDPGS

SMILES | hERG current change (%, negative = inhibition) at 1uM [%]
CC(=O)c1cccc(N(CC(=O)N2CCCCC2)S(C)(=O)=O)c1 | -1.34
COc1ccccc1CNC(=O)CS(=O)Cc1nc(-c2ccc(OC)c(OC)c2)oc1C (centres unmarked) | 1.79
COCCSc1nnc(NC(=O)C2CC(=O)N(c3ccc(OC)cc3)C2)s1 (centres unmarked) | 11.8
COc1ccc(/C=N/NC(=O)c2[nH]c3ccc(C)cc3c2-c2ccccc2)c(C(=O)O)c1OC | 16.1
Cc1ccc(O)c(-c2[nH]ncc2C(=O)c2ccc(Br)cc2)c1 | 8.94
COc1ccc(OC)c(S(=O)(=O)N2CCN(C(=O)c3ccco3)CC2)c1 | 19.1
Nc1ccc(C(=O)Nc2nc3ccccc3s2)cc1 | 16.8
Cc1cc(-c2nnc(CCC(=O)N(CC3CC3)CC3CCCO3)o2)no1 (centres unmarked) | 7.76
O=C(OCC(=O)N1CCOCC1)c1cc(F)c(F)cc1Cl | 4.86
Cc1nc2cc3ccccc3cc2c(=O)[nH]1 | -0.473
Cc1cc(C)nc(SCC(=O)Nc2ncccn2)n1 | 14.4
Clc1ccc(-c2csc(NNC3=NCCCCC3)n2)cc1 | 7.14
CN1CCCN(C(=O)/C=C/c2ccc(F)cc2)CC1 | -5.11
O=S(=O)(c1ccc(NC(=S)N2CCN(c3ccc(O)cc3)CC2)cc1)N1CCOCC1 | 13.2
CCN(CC)CCC(O)(c1ccccc1)C1CCCCC1 (centres unmarked) | 7.62
C[C@@H](C(=O)Nc1ccc2ccccc2c1)[C@H]1C[C@]1(C)[C@H](NS(=O)(=O)c1ccc(-c2ccccc2)cc1)c1ccccc1 | -8.41
Cc1cc(C)cc(-n2nnnc2SCC(=O)Nc2cccc(NC(=O)c3ccco3)c2)c1 | 6.67
COc1ccc(OC)c(NC(=O)CN2C(=O)NC(C)(c3ccc4c(c3)OCCO4)C2=O)c1 (centres unmarked) | 6.93
Cc1ccc(OCC(=O)N2CCOCC2)c([N+](=O)[O-])n1 | 18.7
O=C(N/N=C/c1sc(N2CCOCC2)nc1-c1ccccc1)c1cccc(S(=O)(=O)N2CCCC2)c1 | 14.1
C[C@H](NC(=O)c1nc[nH]c1C(=O)N(C)Cc1ccccc1)C(=O)OC(C)(C)C | 4.69
O=C(O)c1cc(NS(=O)(=O)c2ccc(NCc3ccccc3)c([N+](=O)[O-])c2)cc(C(=O)O)c1 | 13.6

SMILES | hERG current change (%, negative = inhibition) at 1uM [%]
COc1ccc(/C(O)=C/c2nc3ccccc3n(-c3ccccc3)c2=O)cc1 | 10.1
CCCCN(C(=O)C(C)N1C(=O)c2ccccc2C1=O)c1c(N)n(CC(C)C)c(=O)[nH]c1=O (centres unmarked) | 8.92
O=C1C(=O)c2ccccc2-c2ccccc21 | 9.65
O=C(COC(=O)c1cccnc1Cl)Nc1ccc2c(c1)OCCO2 | -3.7
COc1ccc(CN(C)C(=O)Cn2ccc(N)nc2=O)cc1OC | 20.7
CCN(c1ccccc1)S(=O)(=O)c1ccc(C(=O)NCCCN2CCOCC2)cc1 | 5.57
CCCCn1c(N)c(N(CC(C)C)C(=O)c2cccc(S(=O)(=O)N3CCN(C(C)=O)CC3)c2)c(=O)[nH]c1=O | 5.89
O=[N+]([O-])/C=C\c1ccc(N2CCOCC2)cc1 | -5.16
Cc1ccccc1NC(=O)C1CCCN(c2nnc(N3CCCC3=O)s2)C1 (centres unmarked) | 4.65
O=C1c2ccccc2S(=O)(=O)N1CC1CC(c2ccc(Cl)cc2)=NO1 (centres unmarked) | -4.35
COCCNC(=O)c1c(CSc2ccc(F)cc2)noc1C(=O)NCc1ccccc1 | 4.81
C=C(C)C(=O)Nc1ccc(NC(C)C)cc1 | 14.5
CCOC(=O)c1c(-c2ccc(OC)cc2)csc1/N=C/C1=C(O)CCCC1=O | 9.14
O=C(N=C1SC2CS(=O)(=O)CC2N1Cc1ccccc1)C1CCCCC1 (centres unmarked) | 24.8
CC1(C)CC(=O)c2c(n(S(=O)(=O)c3ccccc3)c3ccc(NS(=O)(=O)c4ccccc4)cc23)C1 | 13.9
CCN1c2ccccc2N(C)C1(C)c1ccccc1 (centres unmarked) | 8.62
CCc1ccc(OCC(=O)Oc2ccc([N+](=O)[O-])cc2)cc1 | 15.6
Cc1ccc(Nc2cc(-n3cccn3)ncn2)c(C)c1 | 4.04
N#C/C(=C\c1ccc(Cl)cc1Cl)c1n[nH]c(Cn2cncn2)n1 | 1.9
CCOC(=O)c1c(C)[nH]c(N=Nc2cc(C(=O)O)cc(C(=O)O)c2)c1C | 10.6
Cc1nc(CNS(=O)(=O)c2cccc(F)c2)cs1 | 6.27
O=C(CSc1ccc(-c2ccccc2)nn1)NC1CCCC1 | 9.58
